# According to PubChem BioAssay AID686978 (National Center for Advancing Translational Sciences (NCATS), 2013):
# Hit rate of the full screen: of about 420,000 compounds, about 64,000 (15%) were called active. This list was built around the results that the source calls inconclusive (neither active nor inactive); the mix of calls is not that of the screen. Calls come from the whole dose curve; as a rule, active = well fitted inhibition curve with a large enough effect; inconclusive = small, poorly fitted or top-dose-only effect; inactive = flat fitted curve, though single readings scatter. No potency is given beside an inconclusive call; the fits are too rough.
# Experiment: qHTS for Inhibitors of human tyrosyl-DNA phosphodiesterase 1 (TDP1): qHTS in cells in absence of CPT; note: nearly all actives have a fitted effect of over 55% in size
# Details: DT40 Tdp1-/- hTDP1 cells, no CPT, ATP luminescence, 48 h; activity change, negative = growth inhibition: at 46.2 µM (top of the series) unless noted
# In short: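 Compound effects on proliferation are scored in DT40 Tdp1-/-;hTDP1 cells in the absence of CPT. ATP levels (CellTiter-Glo luminescence) are recorded after a ≥48 hr, 37 °C incubation.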
# % is set by controls: 0 for no effect and ±100 for the full control effect; potency is the fitted concentration of half-maximal effect; tags give direction and shape of the fitted curve.
Compound,Potency,"activity change, negative = growth inhibition"
Cn1c(/C(C#N)=C(\O)c2ccc(Br)s2)nc2ccccc21,"inconclusive [inhibitor, single point]",–
Cc1cccc(N2CCN(C3=NC(=O)/C(=C\c4cn[nH]c4-c4ccccc4)S3)CC2)c1,active: 2.06 µM,–
CN1C(=O)NC(NS(=O)(=O)c2ccc(N)cc2)(C(F)(F)F)C1=O (stereo unspecified),–,inactive: 0.195%
COc1cc(/C=C(\C#N)C(=O)NCC2CCCO2)cc(OC)c1OC (stereo unspecified),"inconclusive [inhibitor, single point]",–
CC1(C)CC2CC(C)(CN2Cc2c(O)ccc3ccccc23)C1 (stereo unspecified),active: 13 µM,–
O=C1NCC(c2ccccc2)C1C(=O)N/N=C\c1ccc(-c2ccc(Cl)c(Cl)c2)o1 (stereo unspecified),"inconclusive [inhibitor, partial curve, poor fit]",–
CCN(Cc1ccc2c(c1)OCO2)C(=O)/C=C/c1cccc(Br)c1,"inconclusive [inhibitor, single point]",–
O=C(NCc1ccncc1)C(=O)NCC(c1ccco1)N1CCN(c2ccccc2F)CC1 (stereo unspecified),–,inactive: -32.7%
O=C1C2CCCCN2C(=O)N1CCN1CCN(c2cccc(Cl)c2)CC1 (stereo unspecified),"inconclusive [inhibitor, single point]",–
CNc1nc(OCCNC(=O)Nc2ccccc2)nc(N2CCOCC2)n1,–,inactive: -18.7%
O=C(CN1C(=O)C2C3C=CC(C3)C2C1=O)OCC(=O)c1ccc([N+](=O)[O-])cc1 (stereo unspecified),"inconclusive [inhibitor, single point]",–
COc1ccc(CC(=O)Nc2ccc(-c3noc(-c4ccccc4OC)n3)cc2)cc1,"inconclusive [inhibitor, single point]",–
Cc1ccc(C(=O)Nc2nc(COc3ccccc3)cs2)s1,"inconclusive [inhibitor, single point]",–
CCCCCCSc1cc(-c2nc3cnccn3c2NCc2ccccc2)ccc1OC,"inconclusive [inhibitor, single point]",–
CCCn1c(=O)c(C(=O)NCc2ccccn2)c(O)c2ccccc21,"inconclusive [inhibitor, single point]",–
Cc1ccc(CNC(=O)CSc2nc3ccccc3c(=O)n2CCCO)cc1,–,inactive: -23.7%
CC(=O)c1ccc(N2CCN(c3ncnc4c3nc3n4CCCC3)CC2)cc1,"inconclusive [inhibitor, single point]",–
CC(C)(C)c1ccc(CNc2cc(N3CCOCC3)ccc2[N+](=O)[O-])cc1,"inconclusive [inhibitor, single point]",–
CCN(CC)S(=O)(=O)c1ccc(-c2csc(C)n2)s1,–,inactive: -20.3%
CC(=O)c1ccc(-c2nnc(CCC(=O)N3CCCC(C(=O)CC(C)C)C3)o2)s1 (stereo unspecified),"inconclusive [inhibitor, partial curve]",–
Cc1ccc(-c2nc3ccccc3n2C(C(=O)NC(C)(C)C)C2CC2)cc1 (stereo unspecified),"inconclusive [inhibitor, single point]",–
COc1ccccc1NS(=O)(=O)c1cccc(C(=O)N/N=C/c2ccc([N+](=O)[O-])o2)c1,active: 2.91 µM,–
CCOC(=O)c1[nH]c2ccccc2c1NC(=O)c1ccc(S(=O)(=O)N2CCCCC2)cc1,active: 23.1 µM,–

Compound,Potency,"activity change, negative = growth inhibition"
CC(C)(C)c1ccc(COc2ccsc2C(=O)O)cc1,–,inactive: -0.149%
COc1ccc(C2C(C#N)=C(N)N(Nc3ccccc3)C3=C2C(=O)CC(C)(C)C3)cc1C (stereo unspecified),–,inactive: -15.5%
COc1cccc(NC(=O)CNC(C)CCC(C)C)c1 (stereo unspecified),"inconclusive [inhibitor, single point]",–
CC(C)(C)[C@H]1COC(=O)CCCC/C=C\C[C@H](CC(=O)NCCO)C(=O)N1,–,inactive: 1.64%
Cc1ccccc1NC(=O)Nc1nc2ccc(S(C)(=O)=O)cc2s1,–,inactive: -16.4%
Cc1ccc(CSc2oc(-c3cccs3)nc2S(=O)(=O)c2ccccc2)cc1,–,inconclusive: -33.2% [inhibitor]
COc1ccccc1N1CCN(C(=O)Nc2ccc([N+](=O)[O-])cc2)CC1,active: 16.4 µM,–
O=C(CCCOc1ccc(Cl)cc1Cl)NCC1CCCO1 (stereo unspecified),"inconclusive [inhibitor, partial curve, poor fit]",–
O=C(Nc1cccc(Cl)c1)c1cccnn1,–,inactive: 1.34%
C=CCN(C(=O)COC(=O)c1cc[n+]([O-])cc1)c1nc(-c2ccccc2)cs1,"inconclusive [inhibitor, single point]",–
C#C[C@]1(O)CC[C@H]2[C@@H]3[C@H](C)CC4=C(CCC(=O)C4)[C@H]3CC[C@@]21C,"inconclusive [inhibitor, single point]",–
Cc1ccc(NC(=O)NC2CCCc3ccccc32)cc1 (stereo unspecified),–,inactive: -19.2%
COc1ccc(N2CCN(C(=O)C3CCN(S(=O)(=O)c4ccccc4)CC3)CC2)cc1,"inconclusive [inhibitor, partial curve]",–
Cc1ccc(C)c(NS(=O)(=O)c2cc(C(=O)NCc3ccccn3)ccc2C)c1,active: 29.1 µM,–
COc1ccc(-c2nnn(CC(=O)NCCc3c[nH]c4ccccc34)n2)cc1OC,"inconclusive [inhibitor, single point]",–
CCOC(=O)c1nn(-c2ccccc2)c(=O)cc1SC1CCCCC1,"inconclusive [inhibitor, partial curve, poor fit]",–
CCC(C(=O)NCc1ccccc1)n1c(Cc2cc(F)cc(F)c2)nc2ccccc21 (stereo unspecified),active: 16.4 µM,–
CCOC(=O)c1c(C)nc(C)c(C(=O)OCC)c1-c1ccc(O)c(OC)c1,–,inactive: -26.4%
CC(C)OC(=O)c1c(NC(=O)c2ccco2)sc2c1CCCCC2,"inconclusive [inhibitor, partial curve]",–
CCCOc1ccc(C(F)(F)F)cc1NC(=O)CCc1c(C)noc1C,"inconclusive [inhibitor, single point]",–
CCOC(=O)C1(CCCc2ccccc2)CCN(C(=O)c2cnn(CC)c2)CC1,active: 18.4 µM,–
O=C(Oc1ccc(-c2ccccc2)cc1)N1CCCCC1,"inconclusive [inhibitor, single point]",–
Cc1c(NC(=O)c2cc(-c3cccc(O)c3)on2)c(=O)n(-c2ccccc2)n1C,–,inactive: -13%
